The text below walks through data of the RNAGym collection of RNA variant scans (doi:10.7554/elife.90254).

The source gives no read counts; variants with many changes may rest on few reads.

First the molecules themselves.
B1: LINE1-full (parent)
chain: UACGUAGGUGGUUUUCCCCUGAUAGUGCUAAGGGGGCCUGGAAGUUUGGACUGGGCAGAGCUCAACACAGCGUGGCAAAGUGGCUGUGGCUAGACUGCCUCUCUGGAUUCCUCGUCACUCAGCAGGGCAUCUCUGAGAGAAAUGCC

This data set covers variants of B1. Kind of data set: self-cleavage, relative activity (ratio to wild type); higher = more cleavage; in vitro, sequencing; the parent is a self-cleaving ribozyme.
For the variant C66U U96C C123U, the self-cleavage was determined as 0.01.

For G70A U130A A138U, the self-cleavage worked out at 0.15. The figure for A64G A136U A142G is 0.14; for A67G U115C A140U it is 0.6. For the variant A64G U108G U112C A138G, the self-cleavage is 0. In the case of A64U G88A U115C C131A U132C it was 0.04; in that of A69G U109C A121G, 0.54; in that of A65U U91C A142G, 0.02.

A65G U109A U130C: the self-cleavage worked out at 0.11.

Consider C68U C128U G139A, for which the self-cleavage was determined as 0.39. Regarding C68A C99A U112A U132C, the self-cleavage turned out to be 0.02.

Turning to A64U A124U A142G, the self-cleavage turned out to be 0.11. The figure for A67U U104A A138G is 0.08; for C71U A79U A117G it is 1.24. Regarding A67G G82A C99U, the self-cleavage amounted to 0.09. In the case of A67G U85G U109A it was 0.15; in that of A67G A78G C90U, 0.04; in that of A64G A77G A142G, 0.57. The figure for A64U A67G C145G is 0.19. As for C71A A78U A136G, the self-cleavage stood at 0.38. The figure for A65G A78U U132A is 0.03; for A67G A92U C95U it is 0.03. Take A69G U112C A142G: the self-cleavage came to 0. On to A65U U112A A140U U143A, for which the self-cleavage amounted to 0.35. In the case of A67G U81A A124G it was 0.54; in that of A64U U85G U132C, 0.15; in that of C71U U104C A107G, 1.28. In the case of C66U U102C U132C A142G it was 0.02; in that of A64C G75A U81A, 0.34. Turning to A69U A107G G144U, the self-cleavage came out at 0.05.

Consider A64U A79U U87C C145G, for which the self-cleavage amounted to 0.1. For the variant A67C U81A U102C, the self-cleavage was determined as 0.15.

Consider A64G A69G C95U, for which the self-cleavage was 0.08. A69G U96C U115C A140G: the self-cleavage amounted to 0.

In the case of A64U A140G A141G, the self-cleavage is 0.55. The figure for A64G U102A U108C is 0.97. The figure for C71U U100C U102C is 1.18; for A64G A107G G125U it is 0.23.

In the case of G70U U91A A107G A141G, the self-cleavage stood at 0.05.

For the variant A65G C68U A79G U85C, the self-cleavage turned out to be 0.07. As to A69U U119C C145U, the self-cleavage stood at 0.04. In the case of A69G U85C A94G U143G it was 0; in that of A65U A69U U87C U96A, 0.

A69G U73C A78G G83C A138U: the self-cleavage is 0.

As for A64U A79C U96G, the self-cleavage turned out to be 0.17. Take A67G G114A A121G A136G: the self-cleavage was found to be 0.97. As for A65G U73A U91G, the self-cleavage amounted to 0.06.

A64U G74A U104C U132A A140G: the self-cleavage came out at 0.4. The figure for A69G A79G U115C A141G is 0.

Take A69U U100C U132C: the self-cleavage came to 0.1. As to C71U A79G A142C, the self-cleavage came out at 0.87. The figure for A67G U104C G126U is 0; for A67U A69U U104A U130C it is 0.02; for A64G U73A A121G A124G it is 0.2.

Take A64G A77G G80A A107U U130C: the self-cleavage was 0.66. In the case of A69U A92G C116U, the self-cleavage came out at 0.04. The figure for A64G U100C C116A is 0.25; for A69U U96C C111U it is 0.02. For the variant A64U A69U G88A, the self-cleavage turned out to be 0.03.

As for A69G A117G A140G, the self-cleavage stood at 0.63. In the case of A64G A121U C133A, the self-cleavage was determined as 0.36.

As for G72A C103U A129G, the self-cleavage amounted to 1.06. In the case of G70U U112C A140G U143C it was 0; in that of A64G G70A U104C U115C G135A, 0.39; in that of A67U C90G U96C, 0.07. In the case of A65G U109A G127A it was 0.05.

On to A69G G70C A107G A117U, for which the self-cleavage came to 0. The figure for A69G A78G U143C is 0; for A64U A138G A142G it is 0.54. In the case of A65G A79G U87A C123U A138G it was 0.04; in that of A67U A69G A129G, 0; in that of A65G A69G A136U, 0. The figure for A64G G88A A136G is 0.02; for A69U G83A G125A it is 0.03; for A69U G80A U132C it is 0.

For the variant A67G G86A G105A A138G, the self-cleavage stood at 0.04. The figure for A69U U100C A136U is 0.03; for A67G G70U C98U U102C it is 0.01. For A69G U87G G122A, the self-cleavage came out at 0.1. With A65G A140G U143A, the self-cleavage amounted to 0.08. The figure for A64U A107G C111U is 0.21; for A64C U91A A136G it is 0.08. The figure for A69U G86A U104C is 0.03; for A67G G72A A141G it is 0.31. The figure for A64G A136U U143A is 0.37; for C66U G88A A124C U130A it is 0.7. Regarding A67G U87C U143C, the self-cleavage was 2.04. A65G A140G C145U: the self-cleavage was 0.07. The figure for A69U A107U G122U is 0.04; for A69G G105A A140U it is 0.01; for A65G A77G C113A it is 0.1. In the case of A64G U100C A138U it was 0. The figure for A67C G114A A136G is 0.06. Regarding A64U G72C U115A A117G A136U A140C, the self-cleavage was 0.3. Turning to A64G A69G C101U, the self-cleavage stood at 0. A64G A79G U130C: the self-cleavage amounted to 0.47. For the variant A64U U102C A117G, the self-cleavage is 0.39. For C68A A78G U91C, the self-cleavage was found to be 0.03. The figure for C68U A107G U112C is 0.39.

Turning to A64G U85C A124G, the self-cleavage stood at 0.15. In the case of A69U A77G U119C A138G it was 0.08.

Consider A69G U100C A140G, for which the self-cleavage was 0.77. Turning to C66A A69G U73A U134A, the self-cleavage was 0.06. In the case of A64U U112A A136G it was 0.53; in that of A64G C99U A142G, 0.23; in that of A64U A69U U102C U112C U115A A138G A142G, 0.04. In the case of G72A U85G G89C A142G, the self-cleavage was 0.06. In the case of A64G A78G U87C it was 0; in that of A64U U96C A140G, 0.1. In the case of A67G U73A U132C it was 0.22. For A64U U109C U119A A124G, the self-cleavage was 0.23. Take A69U U96C A140G: the self-cleavage was 0.02. As for A67G A94G G97A, the self-cleavage was 0.05. Take C68U U115C A124G A129G U143C: the self-cleavage stood at 0.02.

On to A69G A121G A136G, for which the self-cleavage is 1.15. On to A64G U115A U119C U143C, for which the self-cleavage amounted to 0.19. The figure for A69G A94G U109C is 1.15; for A69G A77U A92U it is 0.18. In the case of A65U G105U U130C it was 0.12. In the case of A67G U73C U143A it was 0.5. A67C C110U C113U A124C: the self-cleavage was determined as 0.05. Consider A67G U73A A92U C131U, for which the self-cleavage turned out to be 0.33. As for A64G A79G G114A, the self-cleavage is 0.38. A67U U81C U119A U143A: the self-cleavage turned out to be 0.19. In the case of A64U A67G G86A A142G it was 0.17; in that of A69U U85C A124G U132C, 0.1; in that of A69G U87G A138G, 0. Regarding A69U U119A U143A, the self-cleavage is 0.13. The figure for A69G A94G C128U A129G A142G is 0.23; for A64G U96A C111U it is 0.03; for C66U U81A A142U U143C it is 0.03. In the case of A67G A79G A140U it was 0.61. The figure for A65G U85A U108C A136G is 0; for C71U U96G U119C it is 0.06; for A65G A69G U112C A142G it is 0. Consider A64G C110A A138G, for which the self-cleavage was 0.17. As for G72A A79G G89C C99A U130A, the self-cleavage was 0.02. Turning to A69U C133A U143C, the self-cleavage is 0.04. In the case of A64G U104G C116U A129U A142G it was 0.26. The figure for A69G U104C U119A is 0.67; for C66U U100C U132C A142G it is 0.06; for A67G G74A U100C it is 0.52. The figure for A65U U112C U130C is 0.23; for G72A U102C C128U it is 1.03; for A64G U73C A129U it is 0.5. Turning to A64U U81C A138G, the self-cleavage was 0.65. In the case of A69C U91A U104A A140C, the self-cleavage was determined as 0. Turning to A65G A92C A129U, the self-cleavage is 0. For G70A U87C A107G, the self-cleavage came to 0.06. The figure for A64G U96C U132C A138G is 0.4; for A64G U73C A136G it is 0.16.

On to A65G A77G A129U C145U, for which the self-cleavage turned out to be 0.

For A64U U96C A141G, the self-cleavage came to 0.02. In the case of A67G U87C U115A C128U it was 2.97; in that of C68A U109C A140G, 0.05. In the case of A65G U132C A138G it was 0.05; in that of A69G G89A G93A, 0.02; in that of A64G U85C U104C, 0. As to A67C G74U U81C G105A A121U U132C A141G, the self-cleavage worked out at 0.28. In the case of G72A A141G A142G it was 1.61; in that of C71U U109C A138U A142G, 1.3.

Turning to A67G A78U A129U, the self-cleavage amounted to 0.55. For the variant A64U A92G U104C, the self-cleavage was 0.26. The figure for A69G U91C U100C is 0; for C71U U85A U100A U104C it is 0.02.

Take A64C U96C U143C: the self-cleavage amounted to 0.11.

For the variant A69G A77G U108C, the self-cleavage stood at 0.
